Measurements taken from the supplement of paper PMC11876631.
± gives the standard deviation of the averaged measurements. Laboratory Escherichia coli strains with one amino-acid change in an essential protein, pooled on minimal glucose agar with carbenicillin or gentamicin at twice the control MIC (plus kanamycin and chloramphenicol for the plasmids), 48 h. Fold change of barcode share against drug-free plates; higher = less susceptible. Active = above 20 in both replicates (the paper's putatively resistant). '<' = one read or none on drug, '>' = one read or none on a drug-free plate. Shares are relative, so most strains fall below 1 when a few take over. Listed are strains with at least 15 reads on both drug-free plates, and hits; most hits rest on fewer reference reads. Replicate rank correlation about 0.5. Edits are read from barcodes.

B1: nadB; numbered along this chain (parent)
chain: MNTLPEHSCDVLIIGSGAAGLSLALRLADQHQVIVLSKGPVTEGSTFYAQGGIAAVFDETDSIDSHVEDTLIAGAGICDRHAVEFVASNARSCVQWLIDQGVLFDTHIQPNGEESYHLTREGGHSHRRILHAADATGREVETTLVSKALNHPNIRVLERSNAVDLIVSDKIGLPGTRRVVGAWVWNRNKETVETCHAKAVVLATGGASKVYQYTTNPDISSGDGIAMAWRAGCRVANLEFNQFHPTALYHPQARNFLLTEALRGEGAYLKRPDGTRFMPDFDERGELAPRDIVARAIDHEMKRLGADCMFLDISHKPADFIRQHFPMIYEKLLGLGIDLTQEPVPIVPAAHYTCGGVMVDDHGRTDVEGLYAIGEVSYTGLHGANRMASNSLLECLVYGWSAAEDITRRMPYAHDISTLPPWDESRVENPDERVVIQHNWHELRLFMWDYVGIVRTTKRLERALRRITMLQQEIDEYYAHFRVSNNLLELRNLVQVAELIVRCAMMRKESRGLHFTLDYPELLTHSGPSILSPGNHYINR
B2: cca; numbered along this chain (parent)
chain: MKIYLVGGAVRDALLGLPVKDRDWVVVGSTPQEMLDAGYQQVGRDFPVFLHPQTHEEYALARTERKSGSGYTGFTCYAAPDVTLEDDLKRRDLTINALAQDDNGEIIDPYNGLGDLQNRLLRHVSPAFGEDPLRVLRVARFAARYAHLGFRIADETLALMREMTHAGELEHLTPERVWKETESALTTRNPQVFFQVLRDCGALRVLFPEIDALFGVPAPAKWHPEIDTGIHTLMTLSMAAMLSPQVDVRFATLCHDLGKGLTPPELWPRHHGHGPAGVKLVEQLCQRLRVPNEIRDLARLVAEFHDLIHTFPMLNPKTIVKLFDSIDAWRKPQRVEQLALTSEADVRGRTGFESADYPQGRWLREAWEVAQSVPTKAVVEAGFKGVEIREELTRRRIAAVASWKEQRCPKPE
B3: pdxA; a variant is named by its letters at X, in order (parent)
chain: MVKTQRVVITPGEPAGIGPDLXVQLAQREWPVEXXXCADATLLTNRAAMLGLPLTLRPYSPNSPAQPQTAGTLTLLPVALRAPVTAGQLAVENGHYVVETXARACDGCLNGEFAALITGPVHKGVINDAGIPFTGHTEFFEERSQAKKVVMXLATEELRVALATTHLPLRDIADAITPALLHEVIAILHHDLRTKFGIAEPRILVCGLNPHAGEGGHMGTEEIDTIIPVLNELRAQGMKLNGPLPADTLFQPKYLDNADAVLAMYHDQGLPVLKYQGFGRGVNITLGLPFIRTSVDHGTALELAGRGKADVGSFITALNLAIKMIVNTQ

Variants of: B1
Test: barcode share on antibiotic plates over drug-free plates; higher = less susceptible
Settings: with Escherichia coli (laboratory strain); antibiotic: carbenicillin; 2× MIC (3.1 µg/mL)
Experimental: (§1)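 A pool of E. coli strains, each edited to carry one amino-acid change in an essential protein, was grown for 48 h on minimal glucose agar with or without antibiotic; strain barcodes were sequenced; mean of two replicates.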

Variant	fold change of barcode share
V397D	3.4 ± 0.8
V397A	0.945 ± 0.014
V397Q	9.29 ± 4.1
V397P	5.89 ± 0.43
V397W	5.65 ± 0.24
I500Q	0.662 ± 0.14
I500A	0.615 ± 0.14
L396D	2.56 ± 0.51
L396Q	0.83 ± 0.037
L396P	2.12 ± 0.1
L396W	1.18 ± 0.27
L396A	0.723 ± 0.12
V501A	0.841 ± 0.17
V180A	0.687 ± 0.25
V180W	0.723 ± 0.11
V180Q	0.524 ± 0.036
V180P	0.996 ± 0.077
V180D	0.67 ± 0.027
V184W	0.463 ± 0.11
V184Q	0.5641 ± 0.0024
V184D	1.92 ± 1.4

Same assay, conditions: with Escherichia coli (laboratory strain); antibiotic: gentamicin; 2× MIC (MIC 0.45 µg/mL)

Variant	fold change of barcode share
V397D	0.258 ± 0.33
V397A	0.764 ± 0.17
V397Q	0.542 ± 0.58
V397P	0.316 ± 0.35
V397W	0.371 ± 0.35
I500Q	0.0497 ± 0.043
I500A	0.0556 ± 0.064
L396D	0.184 ± 0.035
L396Q	0.0298 ± 0.016
V501A	0.0242 ± 0.023
V180A	0.0468 ± 0.052
V180W	0.0164 ± 0.018
V180Q	0.0138 ± 0.013
V180P	0.178 ± 0.011
V180D	0.0197 ± 0.022
V184P	0.0461 ± 0.013
V184W	0.0287 ± 0.037
V184A	< 0.0187
V184Q	0.0292 ± 0.021
V184D	0.107 ± 0.14

Variants of: B2
Test: as above
Settings: with Escherichia coli (laboratory strain); antibiotic: carbenicillin; 2× MIC (3.1 µg/mL)
Experimental: as §1

Variant	fold change of barcode share
L136A	0.815 ± 0.032
L136D	0.348 ± 0.056
L136Q	0.597 ± 0.12
L136W	0.327 ± 0.054
L206W	0.6 ± 0.32
L206D	0.289 ± 0.048
L206A	0.393 ± 0.021
L206Q	0.296 ± 0.036
L206P	0.451 ± 0.21
V26Q	0.414 ± 0.28
V26A	0.245 ± 0.2
F207Q	1 ± 0.1
F207W	0.3 ± 0.013
F207A	0.33 ± 0.041
F207P	1.04 ± 0.19
I308P	0.287 ± 0.24

Variant	fold change of barcode share
I308D	0.203 ± 0.027
I308Q	0.353 ± 0.19
I308A	0.262 ± 0.19
I308W	0.304 ± 0.21
V27D	0.193 ± 0.034
V27A	0.341 ± 0.09
V27P	0.287 ± 0.058
V27W	0.147 ± 0.074
M234D	0.273 ± 0.049
M234A	0.341 ± 0.07
M234W	0.344 ± 0.016
M234P	0.302 ± 0.11
M234Q	0.446 ± 0.25
V25A	0.285 ± 0.019
V25Q	0.26 ± 0.017
V25D	0.351 ± 0.21

Same assay, conditions: with Escherichia coli (laboratory strain); antibiotic: gentamicin; 2× MIC (MIC 0.45 µg/mL)

Variant	fold change of barcode share
L136A	0.0145 ± 0.004
L136D	0.00476 ± 0.0014
L136Q	0.007 ± 0.0056
L136W	0.00443 ± 0.0015
L206W	0.0818 ± 0.054
L206D	0.00852 ± 0.0066
L206A	0.0548 ± 0.068
L206Q	0.00519 ± 0.00038
L206P	0.0191 ± 0.023
V26Q	< 0.00561
V26A	< 0.00632
F207Q	0.00524 ± 0.0039
F207W	0.00404 ± 0.0027
F207A	0.00505 ± 0.0023
I308P	< 0.00415
I308D	< 0.00675

Variant	fold change of barcode share
I308Q	< 0.00551
I308A	< 0.0119
I308W	0.00437 ± 0.00058
V27D	< 0.00464
V27A	< 0.00305
V27P	0.00521 ± 0.0027
V27W	< 0.0128
M234D	< 0.00463
M234A	< 0.00661
M234W	0.00917 ± 0.0087
M234P	< 0.00568
M234Q	0.00733 ± 0.0054
V25A	0.00557 ± 0.0033
V25Q	0.00402 ± 0.0027
V25D	0.0115 ± 0.0051

Variants of: B3
Test: as above
Settings: with Escherichia coli (laboratory strain); antibiotic: carbenicillin; 2× MIC (3.1 µg/mL)
Experimental: as §1

Variant	fold change of barcode share
VAVVLM	0.457 ± 0.14
VLDVLM	0.322 ± 0.15
VLPVLM	0.408 ± 0.063
VLAVLM	0.34 ± 0.22
VDVVLM	0.686 ± 0.028

Same assay, conditions: with Escherichia coli (laboratory strain); antibiotic: gentamicin; 2× MIC (MIC 0.45 µg/mL)

Variant	fold change of barcode share
VAVVLM	0.00752 ± 0.0013
VLDVLM	< 0.00327
VLPVLM	0.00852 ± 0.0065
VLAVLM	0.0193 ± 0.011
VDVVLM	< 0.0121
